Measurements: the supplement of paper PMC8728848
The list shows a part of the results.

Key:
Assay in all cases: glycan array binding signal (z-score within array); higher = stronger binding
Settings in all cases: glycan notation: IUPAC condensed, linker removed
[1] = target: Fuc(a1-3)GlcNAc
Method in brief: (§1)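 The Consortium for Functional Glycomics database supplied 3228 glycan arrays, of which those lacking an available protein sequence were dropped. The binding signal, a within-array Z-score, was averaged across arrays of the same protein sequence and across linkers. Negative scores can be read as non-binding.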

[2] = target: Fuc(a1-3)[Gal(b1-4)]Glc6S
Method in brief: as §1

[3] = target: Fuc(a1-3)[Gal(b1-4)]GlcNAc
Method in brief: as §1

[4] = target: Fuc(a1-3)[Gal(b1-4)]GlcNAc(b1-2)Man
Method in brief: as §1

[5] = target: Fuc(a1-3)[Gal(b1-4)]GlcNAc(b1-2)Man(a1-3)[Fuc(a1-3)[Gal(b1-4)]GlcNAc(b1-2)Man(a1-6)]Man(b1-4)GlcNAc(b1-4)GlcNAc
Method in brief: as §1

[6] = target: Fuc(a1-3)[Gal(b1-4)]GlcNAc(b1-2)Man(a1-3)[Fuc(a1-3)[Gal(b1-4)]GlcNAc(b1-2)Man(a1-6)]Man(b1-4)GlcNAc(b1-4)[Fuc(a1-6)]GlcNAc
Method in brief: as §1

[7] = target: Fuc(a1-3)[Gal(b1-4)]GlcNAc(b1-3)Gal(b1-3)[Fuc(a1-4)]GlcNAc
Method in brief: as §1

[8] = target: Fuc(a1-3)[Gal(b1-4)]GlcNAc(b1-3)Gal(b1-4)[Fuc(a1-3)]GlcNAc
Method in brief: as §1

[9] = target: Fuc(a1-3)[Gal(b1-4)]GlcNAc(b1-3)Gal(b1-4)[Fuc(a1-3)]GlcNAc(b1-3)Gal(b1-4)[Fuc(a1-3)]GlcNAc
Method in brief: as §1

[10] = target: Fuc(a1-3)[Gal(b1-4)]GlcNAc(b1-3)GalNAc
Method in brief: as §1

[11] = target: Fuc(a1-3)[Gal(b1-4)]GlcNAc(b1-6)GalNAc
Method in brief: as §1

[12] = target: Fuc(a1-3)[Gal(b1-4)]GlcNAc(b1-6)[Gal(b1-3)GlcNAc(b1-3)]Gal(b1-4)Glc
Method in brief: as §1

[13] = target: Fuc(a1-3)[Gal(b1-4)]GlcNAc6S
Method in brief: as §1

[14] = target: Fuc(a1-3)[Gal3S(b1-4)]Glc
Method in brief: as §1

[15] = target: Fuc(a1-3)[Gal3S(b1-4)]GlcNAc
Method in brief: as §1

[16] = target: Fuc(a1-3)[Gal3S(b1-4)]GlcNAc6S
Method in brief: as §1

[17] = target: Fuc(a1-3)[GalNAc(b1-4)]GlcNAc
Method in brief: as §1

[18] = target: Fuc(a1-3)[GalNAc(b1-4)]GlcNAc6S
Method in brief: as §1

[19] = target: Fuc(a1-4)GlcNAc
Method in brief: as §1

[20] = target: Fuc(b1-3)GlcNAc
Method in brief: as §1

[21] = target: Gal(a1-2)Gal
Method in brief: as §1

[22] = target: Gal(a1-3)Gal
Method in brief: as §1

[23] = target: Gal(a1-3)Gal(b1-3)GlcNAc
Method in brief: as §1

[24] = target: Gal(a1-3)Gal(b1-3)GlcNAc(b1-2)Man
Method in brief: as §1

[25] = target: Gal(a1-3)Gal(b1-3)GlcNAc(b1-2)Man(a1-3)[Gal(a1-3)Gal(b1-3)GlcNAc(b1-2)Man(a1-6)]Man(b1-4)GlcNAc(b1-4)GlcNAc
Method in brief: as §1

[26] = target: Gal(a1-3)Gal(b1-3)GlcNAc(b1-3)GalNAc
Method in brief: as §1

[27] = target: Gal(a1-3)Gal(b1-3)GlcNAc(b1-6)GalNAc
Method in brief: as §1

[28] = target: Gal(a1-3)Gal(b1-3)[Fuc(a1-4)]GlcNAc(b1-2)Man(a1-3)[Gal(a1-3)Gal(b1-3)[Fuc(a1-4)]GlcNAc(b1-2)Man(a1-6)]Man(b1-4)GlcNAc(b1-4)GlcNAc
Method in brief: as §1

[29] = target: Gal(a1-3)Gal(b1-4)Glc
Method in brief: as §1

[30] = target: Gal(a1-3)Gal(b1-4)GlcNAc
Method in brief: as §1

[31] = target: Gal(a1-3)Gal(b1-4)GlcNAc(b1-2)Man
Method in brief: as §1

[32] = target: Gal(a1-3)Gal(b1-4)GlcNAc(b1-2)Man(a1-3)[Gal(a1-3)Gal(b1-4)GlcNAc(b1-2)Man(a1-6)]Man(b1-4)GlcNAc(b1-4)GlcNAc
Method in brief: as §1

[33] = target: Gal(a1-3)Gal(b1-4)GlcNAc(b1-3)GalNAc
Method in brief: as §1

[34] = target: Gal(a1-3)Gal(b1-4)GlcNAc(b1-6)GalNAc
Method in brief: as §1

[35] = target: Gal(a1-3)Gal(b1-4)[Fuc(a1-3)]GlcNAc
Method in brief: as §1

[36] = target: Gal(a1-3)Gal(b1-4)[Fuc(a1-3)]GlcNAc(b1-2)Man(a1-3)[Gal(a1-3)Gal(b1-4)[Fuc(a1-3)]GlcNAc(b1-2)Man(a1-6)]Man(b1-4)GlcNAc(b1-4)GlcNAc
Method in brief: as §1

[37] = target: Gal(a1-3)GalNAc
Method in brief: as §1

[38] = target: Gal(a1-3)[Gal(a1-4)]Gal(b1-4)GlcNAc
Method in brief: as §1

[39] = target: Gal(a1-4)Gal(b1-3)GlcNAc(b1-2)Man(a1-3)[Gal(a1-4)Gal(b1-3)GlcNAc(b1-2)Man(a1-6)]Man(b1-4)GlcNAc(b1-4)GlcNAc
Method in brief: as §1

[40] = target: Gal(a1-4)Gal(b1-4)Glc
Method in brief: as §1

[41] = target: Gal(a1-4)Gal(b1-4)GlcNAc
Method in brief: as §1

[42] = target: Gal(a1-4)Gal(b1-4)GlcNAc(b1-2)Man(a1-3)[Gal(a1-4)Gal(b1-4)GlcNAc(b1-2)Man(a1-6)]Man(b1-4)GlcNAc(b1-4)GlcNAc
Method in brief: as §1

[43] = target: Gal(a1-4)Gal(b1-4)GlcNAc(b1-3)Gal(b1-4)Glc
Method in brief: as §1

[44] = target: Gal(a1-4)GlcNAc
Method in brief: as §1

[45] = target: Gal(a1-6)Glc
Method in brief: as §1

B1: HPL (Tachypleus tridentatus) (protein)
chain: MEDDCTCVTDRSLEGKLMKHPSTPAVYQILDGCRRLVPNPPTYNNIYKNWECIQSNILEKLLCKCDSLSNGAELIKGSGDTVYLLSNGVKRPIADPETFNGFCFDWNKIKTYSDIVINSLSTGPIIIIKHHHHHH
- glycan array binding signal (z-score) [1]: -0.222
- glycan array binding signal (z-score) [2]: 0.371
- glycan array binding signal (z-score) [3]: -0.275
- glycan array binding signal (z-score) [4]: 0.561
- glycan array binding signal (z-score) [5]: 0.36
- glycan array binding signal (z-score) [6]: 0.24
- glycan array binding signal (z-score) [7]: 0.049
- glycan array binding signal (z-score) [8]: 0.239
- glycan array binding signal (z-score) [9]: -0.146
- glycan array binding signal (z-score) [10]: -0.296
- glycan array binding signal (z-score) [11]: 0.111
- glycan array binding signal (z-score) [12]: -0.178
- glycan array binding signal (z-score) [13]: -0.504
- glycan array binding signal (z-score) [14]: 0.161
- glycan array binding signal (z-score) [15]: -0.327
- glycan array binding signal (z-score) [16]: -0.166
- glycan array binding signal (z-score) [17]: 0.037
- glycan array binding signal (z-score) [18]: -0.358
- glycan array binding signal (z-score) [19]: -0.348
- glycan array binding signal (z-score) [20]: -0.219
- glycan array binding signal (z-score) [21]: 0.509
- glycan array binding signal (z-score) [22]: -0.159
- glycan array binding signal (z-score) [23]: -0.108
- glycan array binding signal (z-score) [24]: -0.349
- glycan array binding signal (z-score) [25]: 3.2
- glycan array binding signal (z-score) [26]: -0.24
- glycan array binding signal (z-score) [27]: -0.354
- glycan array binding signal (z-score) [28]: 2.31
- glycan array binding signal (z-score) [29]: 0.05
- glycan array binding signal (z-score) [30]: -0.338
- glycan array binding signal (z-score) [31]: -0.198
- glycan array binding signal (z-score) [32]: 0.167
- glycan array binding signal (z-score) [33]: -0.364
- glycan array binding signal (z-score) [34]: -0.113
- glycan array binding signal (z-score) [35]: -0.287
- glycan array binding signal (z-score) [36]: 0.1
- glycan array binding signal (z-score) [37]: -0.077
- glycan array binding signal (z-score) [38]: -0.374
- glycan array binding signal (z-score) [39]: 0.276
- glycan array binding signal (z-score) [40]: 0.888
- glycan array binding signal (z-score) [41]: -0.165
- glycan array binding signal (z-score) [42]: 0.039
- glycan array binding signal (z-score) [43]: -0.094
- glycan array binding signal (z-score) [44]: -0.181
- glycan array binding signal (z-score) [45]: 1.55
